Experimental data: article PMC4374139
These are yes or no findings as the source states them, for the method shown. In cells and extracts the contact can be indirect. Some entries that bind do so weakly or less than the wild type.

Protein sequences, listed by entry. Tags and fused reporters are not part of them. Lines headed by an entry give the natural chain unless they say otherwise; changes in a name come on top.
UniProt Q92547: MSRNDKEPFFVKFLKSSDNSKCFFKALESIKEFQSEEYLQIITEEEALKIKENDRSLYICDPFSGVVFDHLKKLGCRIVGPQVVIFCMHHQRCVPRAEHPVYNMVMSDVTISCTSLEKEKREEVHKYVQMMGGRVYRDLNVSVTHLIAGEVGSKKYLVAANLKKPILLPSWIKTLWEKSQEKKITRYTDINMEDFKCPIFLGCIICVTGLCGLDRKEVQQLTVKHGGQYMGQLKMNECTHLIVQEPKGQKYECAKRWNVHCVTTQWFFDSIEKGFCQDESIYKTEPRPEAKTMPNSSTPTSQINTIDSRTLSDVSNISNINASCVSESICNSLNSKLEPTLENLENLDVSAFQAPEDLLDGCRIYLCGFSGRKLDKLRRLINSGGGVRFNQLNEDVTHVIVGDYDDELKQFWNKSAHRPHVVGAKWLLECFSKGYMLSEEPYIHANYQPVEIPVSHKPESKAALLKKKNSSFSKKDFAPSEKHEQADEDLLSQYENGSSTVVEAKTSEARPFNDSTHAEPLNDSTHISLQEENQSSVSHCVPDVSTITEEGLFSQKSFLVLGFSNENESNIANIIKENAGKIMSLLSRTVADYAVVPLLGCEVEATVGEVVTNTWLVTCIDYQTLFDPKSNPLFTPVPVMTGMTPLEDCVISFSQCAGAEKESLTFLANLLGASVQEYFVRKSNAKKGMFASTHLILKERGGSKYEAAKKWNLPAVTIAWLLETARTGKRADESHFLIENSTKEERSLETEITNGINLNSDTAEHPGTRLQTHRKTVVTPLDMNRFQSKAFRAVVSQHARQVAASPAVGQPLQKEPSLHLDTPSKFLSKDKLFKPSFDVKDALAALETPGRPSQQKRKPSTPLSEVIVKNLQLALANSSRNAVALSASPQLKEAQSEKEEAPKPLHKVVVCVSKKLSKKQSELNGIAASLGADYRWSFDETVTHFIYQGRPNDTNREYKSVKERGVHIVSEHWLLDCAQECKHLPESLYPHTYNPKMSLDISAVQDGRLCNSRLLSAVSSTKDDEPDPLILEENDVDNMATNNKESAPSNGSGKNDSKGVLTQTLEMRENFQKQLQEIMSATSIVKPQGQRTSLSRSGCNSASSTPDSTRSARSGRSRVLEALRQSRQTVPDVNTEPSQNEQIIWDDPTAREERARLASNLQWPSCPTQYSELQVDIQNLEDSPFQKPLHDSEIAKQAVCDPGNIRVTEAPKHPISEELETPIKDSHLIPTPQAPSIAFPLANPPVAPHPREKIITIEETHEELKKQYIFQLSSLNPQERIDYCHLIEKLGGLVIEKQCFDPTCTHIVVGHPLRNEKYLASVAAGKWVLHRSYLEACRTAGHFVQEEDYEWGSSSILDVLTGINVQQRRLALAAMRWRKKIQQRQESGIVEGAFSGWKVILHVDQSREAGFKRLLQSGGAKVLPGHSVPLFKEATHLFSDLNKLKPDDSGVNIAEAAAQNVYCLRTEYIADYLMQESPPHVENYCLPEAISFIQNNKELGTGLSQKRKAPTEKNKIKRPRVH
UniProt P54132: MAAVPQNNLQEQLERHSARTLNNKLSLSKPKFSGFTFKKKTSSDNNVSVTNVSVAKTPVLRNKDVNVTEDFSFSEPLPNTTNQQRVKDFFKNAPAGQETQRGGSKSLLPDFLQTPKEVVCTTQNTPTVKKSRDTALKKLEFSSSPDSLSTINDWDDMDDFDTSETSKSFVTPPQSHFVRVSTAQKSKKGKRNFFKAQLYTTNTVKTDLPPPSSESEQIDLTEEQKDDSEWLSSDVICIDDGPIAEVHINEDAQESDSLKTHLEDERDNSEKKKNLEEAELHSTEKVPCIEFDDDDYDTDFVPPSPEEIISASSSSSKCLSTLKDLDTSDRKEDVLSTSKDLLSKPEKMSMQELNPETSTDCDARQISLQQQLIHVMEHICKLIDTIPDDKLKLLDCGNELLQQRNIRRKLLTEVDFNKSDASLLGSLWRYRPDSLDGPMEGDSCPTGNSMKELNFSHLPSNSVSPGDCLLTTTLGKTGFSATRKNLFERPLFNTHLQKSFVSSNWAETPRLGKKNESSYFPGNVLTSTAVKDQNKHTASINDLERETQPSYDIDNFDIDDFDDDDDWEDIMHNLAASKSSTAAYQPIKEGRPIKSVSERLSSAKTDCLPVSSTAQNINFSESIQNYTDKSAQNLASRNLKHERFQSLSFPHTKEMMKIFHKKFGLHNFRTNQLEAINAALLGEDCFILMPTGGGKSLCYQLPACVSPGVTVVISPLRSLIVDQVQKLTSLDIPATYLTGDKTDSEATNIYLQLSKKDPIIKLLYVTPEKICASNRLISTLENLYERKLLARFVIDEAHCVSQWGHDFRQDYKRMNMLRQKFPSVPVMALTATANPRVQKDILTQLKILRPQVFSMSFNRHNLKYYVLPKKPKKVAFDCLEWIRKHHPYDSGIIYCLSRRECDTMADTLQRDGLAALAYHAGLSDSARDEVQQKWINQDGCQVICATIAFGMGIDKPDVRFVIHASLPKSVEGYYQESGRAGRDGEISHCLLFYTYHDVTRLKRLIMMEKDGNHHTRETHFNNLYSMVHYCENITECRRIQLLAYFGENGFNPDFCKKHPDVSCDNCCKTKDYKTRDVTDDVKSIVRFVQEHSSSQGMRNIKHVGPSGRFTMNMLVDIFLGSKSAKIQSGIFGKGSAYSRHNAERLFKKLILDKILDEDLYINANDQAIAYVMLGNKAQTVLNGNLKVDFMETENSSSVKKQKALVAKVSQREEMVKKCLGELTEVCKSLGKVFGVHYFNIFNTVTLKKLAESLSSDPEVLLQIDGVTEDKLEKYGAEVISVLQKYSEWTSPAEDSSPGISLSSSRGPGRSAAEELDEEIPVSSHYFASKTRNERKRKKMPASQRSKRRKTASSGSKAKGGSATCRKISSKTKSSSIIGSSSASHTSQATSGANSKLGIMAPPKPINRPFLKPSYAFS
UniProt O60934: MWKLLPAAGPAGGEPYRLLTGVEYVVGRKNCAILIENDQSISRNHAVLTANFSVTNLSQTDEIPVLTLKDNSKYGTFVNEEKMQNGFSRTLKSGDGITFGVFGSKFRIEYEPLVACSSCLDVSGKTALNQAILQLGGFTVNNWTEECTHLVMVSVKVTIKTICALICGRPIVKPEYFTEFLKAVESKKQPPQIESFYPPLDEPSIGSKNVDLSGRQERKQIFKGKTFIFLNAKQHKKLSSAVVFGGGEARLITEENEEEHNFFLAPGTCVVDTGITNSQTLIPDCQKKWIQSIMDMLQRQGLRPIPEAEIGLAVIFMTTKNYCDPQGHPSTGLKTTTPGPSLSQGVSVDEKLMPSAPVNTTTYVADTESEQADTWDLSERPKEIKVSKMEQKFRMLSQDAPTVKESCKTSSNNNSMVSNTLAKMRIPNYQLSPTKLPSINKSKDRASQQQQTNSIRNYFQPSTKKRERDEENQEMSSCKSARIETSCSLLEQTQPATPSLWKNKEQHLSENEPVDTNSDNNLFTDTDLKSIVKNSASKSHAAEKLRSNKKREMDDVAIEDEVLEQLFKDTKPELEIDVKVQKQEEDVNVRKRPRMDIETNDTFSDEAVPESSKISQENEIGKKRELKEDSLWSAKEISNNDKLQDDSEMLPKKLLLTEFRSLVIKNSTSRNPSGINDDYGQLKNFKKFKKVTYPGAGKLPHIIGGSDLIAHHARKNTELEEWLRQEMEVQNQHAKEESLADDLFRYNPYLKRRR

Legend:
[1] = molecular target: GFP-tagged TopBP1 K704A (BRCT5 mutant) (UniProt Q92547); assay: co-IP; pull-down of GFP-tagged TopBP1 or BLM constructs (GFP-Trap agarose) from lysates of transiently transfected 293FT cells, 24 hr after transfection; also cells synchronized in S phase (Figure S3A); Benzonase-treated lysate, 200 mM NaCl, 2 mM EDTA, 4°C; western blot
[2] = molecular target: GFP-tagged TopBP1 K154A (BRCT1 mutant) (UniProt Q92547); assay: as above
[3] = molecular target: GFP-tagged TopBP1 wild-type (UniProt Q92547); assay: as above
[4] = molecular target: GFP-tagged TopBP1 K1317A (BRCT7 mutant) (UniProt Q92547); assay: as above
[5] = molecular target: TopBP1 W711R (BRCT5 mutant) (UniProt Q92547); assay: as above
[6] = molecular target: topoisomerase-IIβ-binding protein 1 (TopBP1), endogenous (human (endogenous in 293FT, U2OS, HeLa)) (UniProt Q92547); assay: co-IP; immunoprecipitation of endogenous TopBP1 or BLM with antibodies and protein G Sepharose from 293FT cell extracts; Benzonase-treated lysate, 200 mM NaCl, 2 mM EDTA, 4°C; western blot

binding [1]	binding [2]	binding [3]	binding [4]	binding [5]	binding [6]	Substance
no binding	binds	binds	binds	no binding	binds	Bloom syndrome helicase BLM, endogenous (from UniProt P54132 1-1417)
binds	no binding	binds	–	binds	–	NBS1 (from UniProt O60934 1-754)
